According to paper PMC4336329 (PLoS ONE, 2015):
Among all 310,000 compounds or so, about 2,200 (0.71%) showed an effect of 50% or more. Effects have a minus sign here. This is one part of the list.

The compounds below were run against human ether-à-go-go-related gene (hERG) potassium channel (human, UniProt Q12809) (assay: primary screen, population patch clamp on CHO cells stably expressing hERG).
Chain of human ether-à-go-go-related gene (hERG) potassium channel (Q12809 whole entry, looked up): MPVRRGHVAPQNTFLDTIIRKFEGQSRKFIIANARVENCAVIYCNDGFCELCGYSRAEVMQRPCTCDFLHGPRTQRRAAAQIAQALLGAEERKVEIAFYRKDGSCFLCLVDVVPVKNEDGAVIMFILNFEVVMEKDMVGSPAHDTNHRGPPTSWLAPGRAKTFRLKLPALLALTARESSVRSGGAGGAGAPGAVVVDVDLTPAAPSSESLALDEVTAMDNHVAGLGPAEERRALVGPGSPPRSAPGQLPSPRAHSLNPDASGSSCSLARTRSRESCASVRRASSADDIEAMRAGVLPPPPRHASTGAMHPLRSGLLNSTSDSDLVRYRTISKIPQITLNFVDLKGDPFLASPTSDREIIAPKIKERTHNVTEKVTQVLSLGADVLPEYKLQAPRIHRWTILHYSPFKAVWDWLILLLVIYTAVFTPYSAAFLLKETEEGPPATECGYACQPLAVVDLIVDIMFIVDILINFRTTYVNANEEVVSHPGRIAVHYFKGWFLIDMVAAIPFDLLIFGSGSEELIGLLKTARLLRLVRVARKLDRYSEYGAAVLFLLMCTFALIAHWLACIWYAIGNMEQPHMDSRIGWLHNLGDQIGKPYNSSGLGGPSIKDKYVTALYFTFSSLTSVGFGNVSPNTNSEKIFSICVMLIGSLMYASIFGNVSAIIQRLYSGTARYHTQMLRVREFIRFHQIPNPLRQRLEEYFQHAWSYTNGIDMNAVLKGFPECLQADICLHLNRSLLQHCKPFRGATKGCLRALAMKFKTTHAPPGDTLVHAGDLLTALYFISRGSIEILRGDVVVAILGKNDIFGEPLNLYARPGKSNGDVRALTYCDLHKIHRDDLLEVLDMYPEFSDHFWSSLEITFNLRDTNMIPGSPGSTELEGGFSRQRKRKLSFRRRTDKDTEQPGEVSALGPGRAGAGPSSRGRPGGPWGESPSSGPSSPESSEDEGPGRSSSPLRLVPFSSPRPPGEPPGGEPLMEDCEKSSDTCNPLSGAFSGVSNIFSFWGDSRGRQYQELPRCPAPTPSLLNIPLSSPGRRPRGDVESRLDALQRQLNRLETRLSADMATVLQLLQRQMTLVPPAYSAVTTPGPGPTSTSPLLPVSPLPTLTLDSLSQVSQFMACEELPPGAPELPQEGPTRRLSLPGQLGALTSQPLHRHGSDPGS

Row | SMILES | hERG current change (%, negative = inhibition) at 1uM [%]
1 | COc1ccc(N2CC(=O)N(c3ccccc3)C2=S)cc1 | 4.34
2 | CC(C)NC(=O)CN(Cc1ccc(F)cc1)C(=O)CCC(=O)Nc1nccs1 | 17.3
3 | CC1(NC(=S)Nc2ccccc2)CCS(=O)(=O)C1 (centres unmarked) | 13.1
4 | O=C(N=C1SC2CS(=O)(=O)CC2N1c1ccc(Cl)cc1Cl)C1CCCO1 (centres unmarked) | 1.53
5 | CCN=C(Nc1cccc(F)c1)SC1CC(=O)N(c2ccc(OC)cc2)C1=O (centres unmarked) | 11.8
6 | COc1cc(NC(=O)CSc2nnc3n2C(C)(C)Cc2ccccc2-3)cc(OC)c1 | 11.8
7 | CCS(=O)(=O)c1ccc(-c2cccc(NC(=O)c3ccco3)c2)nn1 | 6.44
8 | CCn1c(SCC(=O)Nc2oc(C)c3c(C)n[nH]c(=O)c23)nc2sc(C)c(C)c2c1=O | 3.98
9 | COC(=O)c1ccccc1NC(=O)COC(C)=O | 9.05
10 | CCC(C)(C(=O)NC1CCCCC1)N(C)C(=O)c1ccccn1 (centres unmarked) | 4.4
11 | COC(=O)c1ccc(/C=C/c2c(-c3ccsc3)oc3ccc(N4CCOCC4)cc23)cc1 | 13.4
12 | O=C(COc1ccccc1)NNc1c2ccccc2nc2ccccc12 | 4.4
13 | O=C1NNC(c2ccccc2)=N/C1=C\c1ccc(Cl)cc1 | 10.4
14 | O=C(NNC(=O)c1cccs1)c1cccc(F)c1 | 8.52
15 | Cl.NC12CC3CC(CC(C3)C1)C2 | 13.1
16 | C[C@H](NC(=O)C1CCN(S(=O)(=O)c2ccccc2)CC1)C(=O)NCc1cccc(C(F)(F)F)c1 | 15.2
17 | Cc1ccccc1C(=O)N=c1ccn(-c2nc3ccccc3nc2NS(=O)(=O)c2ccc(F)cc2)cc1 | 19.2
18 | Cc1[nH]n(-c2cccc(Cl)c2)c(=O)c1C=NCC(C)C | 0.286
19 | O=C(COc1ccc(S(=O)(=O)N2CCOCC2)cc1Cl)NCCCn1ccnc1 | 8.91
20 | CCS(=O)(=O)c1c(S(=O)(=O)CC)c2ccccn2c1C(N)=O | -9.01
21 | c1coc(C2Nc3cccc4cccc(c34)N2)c1 | 11.3
22 | COc1ccccc1NS(=O)(=O)c1cccc(C(=O)NNC(=O)c2ccc(O)c(Cl)c2)c1 | 8.8
23 | Cc1cccc(Cl)c1NC(=O)N1CCCN(c2ncccc2[N+](=O)[O-])CC1 | 5.84

Row | SMILES | hERG current change (%, negative = inhibition) at 1uM [%]
24 | COc1ccc(CNC2CC(C)N(C)CC2C)cc1OC.Cl (centres unmarked) | 14.1
25 | O=C(Nc1ccncc1)Nc1ccc(Cl)cc1Cl | 17.4
26 | O=C(NCc1ccc(F)cc1)C(=O)NCC1OCCN1C(=O)c1ccc(Cl)cc1 (centres unmarked) | -9.59
27 | Cc1ccc(NC(=S)Nc2ncccc2C)c(C)c1 | 13.3
28 | CSc1cccc(NC(=O)c2ccco2)c1 | 4.34
29 | COc1ccc(OC)c(NC(=O)CSc2nnc(CCCO)n2-c2ccccc2)c1 | -13.6
30 | O=C(O)CC(CC(=O)N1CCOCC1)c1ccccc1 (centres unmarked) | 9.08
31 | CCCc1nn(C)c(C(=O)Nc2cccc(Cl)c2)c1Cl | 4.33
32 | COc1ccc(NC(=O)CN2C(=O)COc3ccc(S(=O)(=O)N4CCCCC4)cc32)cc1OC | 14.4
33 | O=C(COC(=O)Cc1cccc2ccccc12)Nc1ccccc1-c1ccccc1 | 8.5
34 | Clc1ccc2oc(-c3ccccc3)nc2c1 | 10.9
35 | CC(=O)NCCN1C(=O)S/C(=C\c2cccs2)C1=O | 4.24
36 | CCC(=O)Nc1nnc(SCC(=O)Nc2cccc(Cl)c2)s1 | -0.827
37 | CCOC(=O)CC(=O)Nc1nnc(C(C)C)s1 | 14.7
38 | O=C(CCC(=O)OCC(=O)c1ccc([N+](=O)[O-])cc1)Nc1ccccc1Cl | 5.57
39 | O=C(Nc1ccccc1F)C1CCCN(S(=O)(=O)c2ccccc2)C1 (centres unmarked) | 3.79
40 | Cc1nc2cccnc2nc1C | 4.49
41 | COc1ccc(-c2sc(Nc3ccccc3)n[n+]2-c2ccccc2)cc1Br.[Cl-] | 0.93
42 | CCOCCn1ccc2c(OCC(=O)Nc3ccc(OC)cc3OC)cccc2c1=O | 4.73
43 | NC(=S)NN=C1c2cc(OCCN3CCOCC3)ccc2-c2ccc(OCCN3CCOCC3)cc21 | 5.35
44 | O=C(COC(=O)c1ccccn1)NCc1ccc(Cl)cc1Cl | 7.97
45 | Cc1cccc(-c2noc(CCCC(=O)NC3CCCCC3)n2)c1 | 13
46 | CC(=O)Nc1ccc(C=C(C(C)=O)C(C)=O)cc1 | 8.31

Row | SMILES | hERG current change (%, negative = inhibition) at 1uM [%]
47 | Cc1c(CC(=O)N2CCN(C(=O)C3COc4ccccc4O3)CC2)c(=O)oc2cc(O)cc(O)c12 (centres unmarked) | 22.6
48 | CCOc1ccc(N(CC(=O)NCc2ccco2)C(=O)CCC(=O)Nc2nccs2)cc1 | 2.24
49 | CC(C)c1ccc(NC(=O)Cn2nnc(C(=O)NCc3ccc4c(c3)OCO4)c2N)cc1 | 12.7
50 | Cc1cc(NC(=O)Cc2cccs2)nn1CC(=O)NCc1ccco1 | 10.3
51 | Cc1ccnc(NC(=O)c2ccccc2NC(=O)C(C)(C)C)c1 | 2.69
52 | NS(=O)(=O)c1ccc(CNC(=O)c2cccnc2Cl)cc1 | 7.64
53 | Cc1ccc(S(=O)(=O)N(C)C)cc1NC(=O)Nc1ccccc1F | 12.4
54 | O=C(O)c1cc(-c2ccco2)nc2cc3ccccc3cc12 | 15.5
55 | c1ccc(CN2CCN(C(c3ccccc3)c3nnnn3Cc3ccccc3)CC2)cc1 (centres unmarked) | 0.303
56 | CCCCn1nc(NC(=O)c2cccs2)c2cc3ccccc3nc21 | 10.5
57 | CC(=O)NC1C(=O)N=C(SCC(=O)NC(C)c2ccccc2)NC1=O (centres unmarked) | 18.8
58 | CCc1ccc(CNC(=O)c2ccc(OC3CCN(C(C)=O)CC3)c(OC)c2)nc1 | 16.5
59 | COC(=O)c1c(NC(=O)C2Cc3ccccc3C(=O)O2)sc2c1CCCC2 (centres unmarked) | 15.4
60 | CN(C)c1ccnc2sc(C(N)=O)c(N)c12 | 8.93
61 | Cc1cnc(C(=O)OCC(=O)Nc2c(Cl)cc(Cl)cc2Cl)cn1 | 15.4
62 | COc1cccc(OC)c1C(=O)Nc1ccc2nc(C)c(C)nc2c1 | 0.445
63 | COc1ccc(NC(=O)CCS(=O)(=O)c2ccc(OC)cc2)cc1 | 6.18
64 | O=C(COc1ccc(F)cc1)Nc1nc(-c2ccccn2)cs1 | 7.08
65 | CCOC(=O)CNC(=O)N1CCCC(CCC(=O)NCc2ccc(F)c(F)c2)C1 (centres unmarked) | 13.9
66 | COc1ccccc1N1CCN(C2CCCN(C(=O)c3ccnc4ccc(C)cc34)C2)CC1 (centres unmarked) | -2.36
67 | COc1ccccc1OCC(=O)NCCCN1CCOCC1 | 13.3
68 | COc1ccccc1OCCCCNCCO | 9.29
69 | O=C(CC1OC(=O)c2ccccc21)Nc1ccccc1N1CCOCC1 (centres unmarked) | -1.46

Row | SMILES | hERG current change (%, negative = inhibition) at 1uM [%]
70 | CC(C)Cn1cc(C(=O)NCC2CCCO2)c2c3ccccc3n(C)c2c1=O (centres unmarked) | 0.636
71 | COc1ccccc1N(CC(O)Cn1c2ccccc2c2ccccc21)S(=O)(=O)c1ccccc1 (centres unmarked) | 4.52
72 | COc1ccc(-n2c(=O)c3c(C)c(C)sc3n(Cc3cccc(F)c3)c2=O)c(OC)c1 | 16.3
73 | CC1CCCN(Cc2nc(Cc3ccccc3Cl)no2)C1 (centres unmarked) | 12.7
74 | CC12CC3(C)CC(C)(C1)CC(C(=O)NC1=NCCS1)(C2)C3 | -3.49
75 | COc1ccccc1C(=O)C1CCCN(C(=O)c2ccccn2)C1 (centres unmarked) | 15.4
76 | COc1ccc(C2C(C#N)=C(C)NC3=C2S(=O)(=O)c2ccccc23)cc1 (centres unmarked) | -2.41
77 | O=C(NCc1ccc(F)cc1)c1ccc(N2CCOCC2)c([N+](=O)[O-])c1 | -9.75
78 | CCOC(=O)c1c(CN2CCCCC2)oc2ccc(OC)cc12.Cl | -19.6
79 | O=C(COC(=O)CNS(=O)(=O)c1ccc(Br)cc1Cl)Nc1ccc(N2CCOCC2)cc1 | 19.5
80 | CN1N=C(C(=O)N2CCc3c([nH]c4ccccc34)C2c2ccccc2Cl)CCC1=O (centres unmarked) | -5.74
81 | COc1cc(C(=O)Nc2ccncc2)c([N+](=O)[O-])cc1OC | 11.6
82 | Nc1nnn(-c2ccccc2)c1-c1ccccc1 | 13
83 | O=C(NCc1ccccc1)c1cccnc1Sc1ccccc1 | 16.1
84 | CC(C)OC(=O)c1ccc(N2CCN(c3ccc(F)cc3)CC2)nc1 | 7.03
85 | Cc1cccc(Nc2nnc(SC/C(O)=C(\C#N)c3nc4ccccc4[nH]3)s2)c1 | 12.8
86 | Cc1ccc(N(C(=O)c2csnn2)C(C(=O)NC(C)(C)C)c2cccs2)cc1 (centres unmarked) | -8.47
87 | Cc1cccc(NC(=O)C2CCN(S(=O)(=O)c3ccc4ccccc4c3)CC2)n1 | 4.11
88 | CCCOC(=O)CCNc1n[nH]c(=O)[nH]c1=O | 6.02
89 | O=C(NCc1ccco1)C1CCN(C(=O)c2ccc([N+](=O)[O-])cc2)CC1 | 5.51
